“And” between values parts separate entries of the source, which are not always exact repeats. Equal entries are not always repeated. Inconclusive results, whose numbers are uncertain, are shown with a selection of clear calls. For some of these results: Where the call is inconclusive, the potency comes from a doubtful curve fit. The source made the active and inactive calls. Unless noted, the call rests on the fitted dose curve; in most records, active means well fitted curve in the direction sought with a large enough effect; inconclusive means small, poorly fitted or top-dose-only effect, or another doubt; inactive means no such curve, though single readings can be large; an effect the other way counts as inactive or inconclusive. Bridge positions count the residues as written; N and C are the ends. Square brackets hold non-standard residues; d marks the D form. Peptide text beside a SMILES is read from it. * marks the point of attachment. ξ: configuration not given here. Octanoyl(6-Me) = CCC(C)CCCCC(=O)*; ξThr(3R) = C[C@@H](O)C(N)C(=O)O; dDab = NCC[C@@H](N)C(=O)O; Dab = NCC[C@H](N)C(=O)O
Tests used:
[1] = qHTS Screen of the MIPE 4.0 Collection Against Ewings Sarcoma (TC71) (AID 1259253); further: nearly all actives have a fitted effect of over 40% in size; further: potency means the concentration at half of the fitted maximal effect
Summary of the method: (§1)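 Dose series incubated 48 h with cells in RPMI plus 5% FBS, glutamine and penicillin/streptomycin; cell viability then quantified via CellTiter-Glo.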

[2] = qHTS assay to identify small molecule inhibitors of chordoma cells - UCH-1 (AID 1259355); further: nearly all actives have a fitted effect of over 55% in size; further: potency means the concentration at half of the fitted maximal effect
Summary of the method: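 Screening used approved and investigational drugs in 15-point titration against 800 seeded cells per well. A fixed combination of auranofin with camptothecin, doxorubicin, rubitecan and topotecan followed compound addition, and growth was scored by CellTiter-Glo after 48hr.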

[3] = qHTS Screen of the MIPE 4.0 Collection Against Ewings Sarcoma (TC32) (AID 1259256); further: potency means the concentration at half of the fitted maximal effect; nearly all actives have a fitted effect of over 45% in size
Summary of the method: as §1

[4] = P-glycoprotein substrates identified in KB-8-5-11 adenocarcinoma cell line, qHTS therapeutic library screen (AID 1346987); further: nearly all actives have a fitted effect of over 65% in size; further: potency means the concentration at half of the fitted maximal effect
Summary of the method: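 Compounds are pinned in dose-response onto KB-8-5-11 cells (500 cells/well, colchicine-free medium) and left 72 h at 37 degree C. CellTiter-Glo luminescence then yields AC50 values.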

[5] = Identifying Small Molecule Inhibitors of Pancreatic Cancer Stem Cells (A2780, Spheroid) (AID 1259357); conditions: Potency: A2780 spheroid viability; viability (percent of control): at 46.1 µM (top of the series);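 further: potency means the concentration at half of the fitted maximal effect; compound exposure lasted 48 h before the ATP luminescence read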
Summary of the method: (§2)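 Adherent (2D) versus sphere (3D) formats; spheres generated 14 d in SCM beforehand. Compound transferred by pin tool after 4 h, 48 h incubation, CellTiter-Glo endpoint.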

[6] = Identifying Small Molecule Inhibitors of Pancreatic Cancer Stem Cells (Panc1, Spheroid) (AID 1259359); conditions: Panc1 spheroid cancer stem cell viability; viability, % of control: at 46.1 µM (top of the series);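 further: potency means the concentration at half of the fitted maximal effect; compound exposure lasted 48 h before reading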
Summary of the method: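 After a 4 h attachment period, compounds were pinned into wells and cultures held 48 h under standard incubator conditions. Viability was then measured as CellTiter-Glo luminescence following 10 min at room temperature.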

[7] = Identifying Small Molecule Inhibitors of Pancreatic Cancer Stem Cells (A278, Adherent) (AID 1259361); conditions: viability (% of control): at 46.1 µM (top of the series); further: nearly all actives have a fitted effect of over 35% in size;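 on viability (% of control): 100% = DMSO-treated cells and 0% = cell-free media-only wells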
Summary of the method: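 Endpoint: ATP-based luminescence, 48 h drug exposure. Bortezomib at 9.2 uM final as full-kill control; DMSO vehicle as negative control; activity normalized between vehicle and cell-free wells.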

[8] = Identifying Small Molecule Inhibitors of Pancreatic Cancer Stem Cells (Panc1, Adherent) (AID 1259362); conditions: Potency: viability; viability, % of control: at 46.1 µM (top of the series);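 further: compound exposure lasted 48 h before the viability read; plate controls were DMSO-treated cells for no effect and cell-free media wells for full effect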
Summary of the method: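 Cytotoxicity read by CellTiter-Glo luminescence after 48 h compound exposure at 37C; percent activity scaled between DMSO-treated cells and cell-free wells. Spheroid formats used cells pre-formed 14 days in stem cell media on hydrogel.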

[9] = qHTS Screen of the MIPE 4.0 Collection Against Ewings Sarcoma (EW8) (AID 1259255); further: nearly all actives have a fitted effect of over 35% in size; further: potency means the concentration at half of the fitted maximal effect;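 on viability: 100% = DMSO-treated cells and 0% = medium-only wells without cells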
Summary of the method: as §1

[10] = Identifying Small Molecule Inhibitors of Pancreatic Cancer Stem Cells (SN12C, Spheroid) (AID 1259360); conditions: Potency: SN12C spheroid viability; further: potency means the concentration at half of the fitted maximal effect
Summary of the method: as §2

[11] = Natriuretic polypeptide receptor (hNpr1) antagonism - Pilot counterscreen GloSensor control cell line (AID 1347045; calls by dose curve; further: on the % scale 0 is the no-effect control and ±100 the full control effect)
Summary of the method: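 Control counterscreen: luciferase cGMP-biosensor HEK293 cells (no Npr1) received compound for 30 min at room temperature after GloSensor substrate loading. Luminescence was measured before and 20 min after soluble guanylyl cyclase activation by 50 uM nitroprusside.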

[12] = P-glycoprotein substrates identified in KB-3-1 adenocarcinoma cell line, qHTS therapeutic library screen (AID 1346986);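 further: potency means the concentration at half of the fitted maximal effect; potency is for cytotoxicity meaning loss of cell viability; nearly all actives have a fitted effect of over 60% in size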
Summary of the method: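 In 1536-well format, 500 cells/well received pinned compound titrations and were incubated 72 h, 5% CO2. Viability was read by CellTiter-Glo; cytotoxic if AC50 < 10 uM and efficacy >50%.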

[13] = qHTS Assay for Identifying Gametocytocidal Compounds (AID 743244);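 further: on the % scale 0 is the no-effect control and ±100 the full control effect; actives lower the fluorescent signal which means gametocytes are killed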; conditions: P. falciparum 3D7 stage III-V gametocytes, alamarBlue, 72 h; max response: stronger effect = lower value
Summary of the method: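 Late gametocytes (III–V), P. falciparum 3D7; 72 h drug, then 24 h alamarBlue; resazurin reduction read by fluorescence.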
Tags describe the fitted curve by direction and shape.

In the case of `CCOC(=O)c1ccc(OC(=O)CCCCCN=C(N)N)cc1`, the Potency [1] was “inactive” and the Potency [2] was inconclusive: 0.0003 µM.

In the case of `CC[C@@]1(O)C(=O)OCc2c1cc1n(c2=O)Cc2cc3cc(O)ccc3nc2-1`, the Potency [3] was active: 0.0033 µM and the Potency [4] was active: 1.16 µM and active: 1.05 µM.

In the case of `CC(C)n1c(C=C[C@H](O)C[C@H](O)CC(=O)O)c(-c2ccc(F)cc2)c2ccccc21`, the Potency [1] was active: 3.32 µM, the Potency [5] was inconclusive: 13.2 µM [cytotoxic, partial curve, poor fit] and the Potency [6] was inconclusive: 0.118 µM [cytotoxic, full curve, poor fit]. For the same molecule, the IC50 (viability decrease) [7] was active: 1.05 µM, the viability, % of control [8] was inconclusive: 96.9% and the Potency [4] was active: 11.8 µM.

For `O=C(Nc1cccc(Br)c1)c1cccc(S(=O)(=O)N2CCCCCC2)c1`, the Potency [9] was inconclusive: 23.5 µM [inhibitor, partial curve], the Potency [3] was inconclusive: 23.5 µM [inhibitor, partial curve] and the Potency [4] was inconclusive: 16.6 µM [inhibitor, partial curve] and inconclusive: 16.4 µM [inhibitor, partial curve].

In the case of `Cc1ccccc1-n1c(Cn2nc(-c3cccc(O)c3)c3c(N)ncnc32)nc2cccc(C)c2c1=O`, the Potency [9] was active: 16.6 µM, the Potency [3] was inconclusive: 9.35 µM [inhibitor, full curve] and the Potency [4] was “inactive”.

For `CN(C)C(=N)N=C(N)N`, the Potency [1] was “inactive”, the Potency [2] was “inactive” and the Potency [5] was inconclusive: 0.0662 µM [rising, full curve]. The Potency [6] was inconclusive: 1.87 µM [rising, full curve, poor fit], the Potency [10] was inconclusive: 0.0053 µM [rising, full curve, poor fit] and the IC50 (viability decrease) [7] was “inactive”. For the same molecule, the Potency [8] was “inactive”.

With `Cc1cn([C@H]2C=C[C@@H](CO)O2)c(=O)[nH]c1=O` the Potency [1] was “inactive” and the Potency [2] was “inactive”.

For `CCC(C)CCCCC(=O)N[C@@H](CCN)C(=O)NC(C(=O)N[C@H](CCN)C(=O)N[C@@H]1CCNC(=O)C([C@@H](C)O)NC(=O)[C@@H](CCN)NC(=O)[C@@H](CCN)NC(=O)[C@@H](CC(C)C)NC(=O)[C@H](Cc2ccccc2)NC(=O)[C@H](CCN)NC1=O)[C@@H](C)O` (stereo partly drawn) ({Octanoyl(6-Me)}-[Dab][ξThr(3R)][dDab][dDab][Dab]F[dL][dDab][dDab][ξThr(3R)]; lactam 4-C), the Potency [9] was “inactive”.

In the case of `N[C@@H](Cc1cc(I)c(Oc2cc(I)c(O)c(I)c2)c(I)c1)C(=O)O`, the Potency [1] was inconclusive: 2.35 µM [inhibitor, partial curve, poor fit] and the Potency [2] was “inactive”.

With `Nc1ncnc2nc(-c3ccc(N4CCOCC4)nc3)cc(-c3cccc(Br)c3)c12` the Potency [3] was inconclusive: 37.2 µM [inhibitor, single point], the Potency [5] was inconclusive: 6.62 µM [cytotoxic, partial curve, poor fit] and the Potency [10] was inconclusive: 14.8 µM [cytotoxic, partial curve, poor fit]. For the same molecule, the Potency [8] was “inactive”, the Potency [4] was inconclusive: 29.1 µM [inhibitor, single point] and the Potency [11] was “inactive”.

In the case of `O=P(O)(O)C(O)(Cn1ccnc1)P(=O)(O)O`, the Potency [9] was “inactive”.

For `CCCOc1ccc2nc(NC(=O)OC)[nH]c2c1`, the Potency [2] was inconclusive: 1.26 µM [cytotoxic, full curve, poor fit], the Potency [12] was active: 0.291 µM and the Potency [4] was active: 231 nM and active: 651 nM and active: 11.8 nM.

In the case of `CS(=O)(=O)c1ccc(C2=C(c3ccccc3)C(=O)OC2)cc1`, the max response [13] was inactive: 3.44%, the Potency [9] was inconclusive: 37.2 µM [inhibitor, single point] and the Potency [3] was inconclusive: 20.9 µM [inhibitor, single point]. For the same molecule, the Potency [4] was inconclusive: 25.9 µM [inhibitor, single point] and inactive.

For `Cc1nc(C(=O)NCC(=O)O)c(O)c2ccc(Oc3ccccc3)cc12`, the Potency [1] was “inactive” and the Potency [4] was inconclusive: 20.6 µM [inhibitor, partial curve, poor fit].

With `COc1ccc(-c2nc(N3CCOCC3)c3sc(CN(C)c4ncc(C(=O)NO)cn4)cc3n2)cn1` the Potency [1] was inconclusive: 0.0074 µM [inhibitor, full curve], the Potency [9] was inconclusive: 0.0059 µM [inhibitor, full curve] and the Potency [3] was inconclusive: 0.0059 µM [inhibitor, full curve]. For the same molecule, the Potency [12] was active: 0.164 µM.

For `C[C@]12CCC3c4ccc(O)cc4CCC3C1CCC2=O` (some centres not stated), the Potency [9] was inconclusive: 1.18 µM [inhibitor, partial curve, poor fit].

For `Nc1nc(OCc2ccccc2)c2[nH]cnc2n1`, the Potency [3] was inconclusive: 18.7 µM [inhibitor, partial curve].

In the case of `C#C[C@]1(O)CC[C@H]2[C@H]3CCc4cc(OC)ccc4[C@H]3CC[C@@]21C`, the Potency [9] was inconclusive: 33.2 µM [inhibitor, single point] and the Potency [3] was inconclusive: 29.6 µM [inhibitor, single point].
